# PubChem BioAssay AID1346428 (National Center for Advancing Translational Sciences (NCATS), 2018)
# Screen size: about 48,000 compounds; about 1,200 (2.5%) were called active. Inconclusive results (about 2%) are left out.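 The calls were made as follows: active = activation of at least 60% and not above a set upper limit (about 1 call in 100 departs from these limits); inconclusive = activation of 40% to 60%, or above that upper limit; inactive = activation under 40%.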 The list shows a part of the results.
# Biological target: Probable G-protein coupled receptor 32 (Homo sapiens) (UniProt O75388)
# Chain of UniProt O75388 (O75388 whole entry, looked up): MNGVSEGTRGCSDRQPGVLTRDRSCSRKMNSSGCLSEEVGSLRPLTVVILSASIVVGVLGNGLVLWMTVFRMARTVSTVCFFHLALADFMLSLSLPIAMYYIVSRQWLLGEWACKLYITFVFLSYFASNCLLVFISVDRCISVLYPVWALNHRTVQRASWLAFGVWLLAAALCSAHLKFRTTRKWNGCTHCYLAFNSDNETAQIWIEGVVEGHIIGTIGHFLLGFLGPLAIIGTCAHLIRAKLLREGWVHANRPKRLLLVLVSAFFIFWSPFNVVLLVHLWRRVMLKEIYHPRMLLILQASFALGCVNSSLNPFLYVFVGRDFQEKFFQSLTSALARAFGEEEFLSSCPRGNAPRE
# Experiment: qHTS for Agonists of Human Resolvin D1 Receptor DRV1; also: 0% is about no effect
# Details: CHO-K1 GPR32 beta-arrestin PathHunter luminescence, 90 min; at 76.9 µM; active compounds read high; zero percent set by DMSO-only wells
# Method in brief: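 Agonism was scored as beta-arrestin recruitment to ProLink-fused GPR32 in stably transfected CHO-K1 cells, giving a chemiluminescent beta-Gal signal; compounds were incubated 90 min at 37 °C.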
row,Compound,activation
1,CCOc1ccc(OCC)c(Nc2ccc3cc(S(=O)(=O)N4CCCC4)ccc3n2)c1,inactive: -16.6%
2,CCC(C)NC(=O)CSc1nc2n[nH]c(C)c2c(=N)n1-c1cc(Cl)ccc1C (stereo not drawn),inactive: 2.02%
3,O=C(C1CCCN(S(=O)(=O)c2cccc3nsnc23)C1)N1CCN(c2ccccc2F)CC1 (stereo not drawn),inactive: 0.426%
4,COc1ccccc1NC(=O)c1sc2nc(C)c(C(=O)Nc3ccc(C)cc3C)c(-c3ccco3)c2c1N,inactive: -24.2%
5,CC(C)c1ccc(NC(=O)c2ccc(F)c(S(=O)(=O)N3CCc4ccccc43)c2)cc1,inactive: 9.66%
6,COc1ccccc1CNC(=O)c1cc2sccc2n1Cc1ccc(Cl)cc1,inactive: 0.31%
7,COc1cccc(-c2noc(C3CC(=O)N(c4ccc(F)cc4)C3)n2)c1OC (stereo not drawn),inactive: 25.8%
8,Cc1ccc(NC(=O)c2ccc3[nH]c(C)cc(=O)c3c2)cc1,inactive: 7.33%
9,CSc1cccc(NC(=O)c2cccc(N3CCCS3(=O)=O)c2)c1,inactive: 9.73%
10,Cc1ccccc1NC(=O)CSc1nc2ccc(NC(=O)c3cccs3)cc2s1,inactive: 10.2%
11,CCc1ccc(NC(=O)CCn2c(=O)c3cccn3c3ccccc32)cc1,inactive: -15.5%
12,COc1ccc(NC(=O)CSc2ccc3nc(-c4ccccc4)cn3n2)c(OC)c1,inactive: -21.5%
13,Cc1ccc(-n2nc(CO)c(C(=O)NC(C)CCCc3ccccc3)n2)cc1 (stereo not drawn),inactive: -0.797%
14,CC(C)CC(NS(=O)(=O)c1ccc2c(c1)oc(=O)n2C)C(=O)NCc1ccccc1Cl (stereo not drawn),inactive: -5.84%
15,CCCn1c(=O)sc2cc(NC(=O)c3ccc(OC)c(Br)c3)ccc21,inactive: 8.82%
16,CCCOc1ccc(CN(C(=O)Cc2coc3ccc(CC)cc23)C2CCS(=O)(=O)C2)cc1 (stereo not drawn),inactive: -31.5%
17,CCc1nn2c(=O)cc(COC(=O)CNC(=O)COc3ccc(C)cc3)nc2s1,inactive: 0%
18,COc1ccc(NC(=O)c2c(NCc3sccc3C)sc3c2CCCC3)c(OC)c1,inactive: -4.92%
19,CCC(=O)N1CCc2cc(S(=O)(=O)CCC(=O)N3CCN(c4ccc(Cl)cc4)CC3)ccc21,inactive: 24.5%
20,Cc1ccc(NC(=O)CN2CCN(S(=O)(=O)c3ccc(C(C)C)cc3)CC2)cc1F,inactive: 25.9%
21,Cc1cn(C)c(CC(=O)N2CCN(c3cccc(Cl)c3)CC2)c1C(=O)O,inactive: -1.13%

row,Compound,activation
1,COc1ccc(Nc2nc(N)nc(N)c2S(=O)(=O)c2ccccc2)cc1,inactive: 35.5%
2,Nc1nc2c(ncn2CCC(CO)CO)c(=O)[nH]1,inactive: -17.6%
3,CCCN(CCC)C(=O)Cn1c(=O)n(-c2ccc(CC)cc2)c(=O)c2ccc(C(=O)NCCc3ccccc3)cc21,inactive: -6.2%
4,CCOC(=O)c1ccc(Nc2nc3ccc(C(=O)c4ccccc4)cc3n3c(C)nnc23)cc1,inactive: -10.2%
5,O=c1c2ccccc2n(Cc2ccccc2Cl)c(=O)n1CCc1ccccc1,inactive: -4.22%
6,Cc1cccc(NC(=O)c2ccc3nc(C(C)C)oc3c2)c1C,inactive: -11%
7,COc1cccc(NC(=O)CSC2=Nc3ccccc3C3=NC(CCC(=O)NCCc4ccccc4)C(=O)N23)c1 (stereo not drawn),inactive: -8.75%
8,Cc1ccc(-n2cc(C(=O)Oc3cccc(C)c3)c3ccccc3c2=O)cc1,inactive: -1.71%
9,CCCCCOc1ccc(Cn2c(=O)oc3ccccc32)cc1,inactive: 11.5%
10,COc1cc(Cl)c(NC(=O)CCS(=O)(=O)c2ccc3c(c2)NC(=O)CO3)c(OC)c1,inactive: -18.4%
11,COc1ccc(-c2cc(C(=O)NCCc3ccccc3)c3c(-c4ccccc4)[nH]nc3n2)cc1OC,inactive: -11.4%
12,Cc1ccc(NC(=O)C2CCCN(S(=O)(=O)c3ccc4c(c3)oc(=O)n4C)C2)cc1Cl (stereo not drawn),inactive: -0.0375%
13,CCOc1ccc(NC(=O)C(=O)c2cc(C)n(-c3cc(C)cc(C)c3)c2C)cc1,inactive: -2.17%
14,CC(C)(C)OC(=O)N1CCC(c2c(C(=O)NC3CCN(Cc4ccccc4)CC3)cnn2-c2ccc(F)cc2F)CC1,inactive: -13.9%
15,COc1ccc(CCNC(=O)c2ccc3c(c2)CCN3S(=O)(=O)c2ccc(C)cc2)cc1,inactive: 0.898%
16,CCCOc1ccc(C(=O)OCCN(CC)CC)cc1N,inactive: -4.47%
17,Cc1ccc(Nc2c(-c3ccc(N(C)C)cc3)nc3nc[nH]n23)cc1,inactive: -33.5%
18,COCCCn1c(=N)c(C(=O)NCC2CCCO2)cc2c(=O)n3cc(C)ccc3nc21 (stereo not drawn),inactive: -8.5%
19,CC(=O)OCC(=O)[C@H]1CC[C@H]2[C@@H]3CCC4=CC(=O)CC[C@]4(C)[C@H]3CC[C@]12C,inactive: -29%
20,CC(=O)c1ccc(S(=O)(=O)Nc2ccc(-c3ccc(N4CCCCCC4)nn3)cc2)cc1,inactive: -15.3%
21,Cc1ccc2c(=O)cc(C(=O)Nc3ccc(S(=O)(=O)N4CCC(C)CC4)cc3)oc2c1C,inactive: -7.27%

row,Compound,activation
1,COc1cccc(-c2nn3c(=O)cc(CN4CCN(S(=O)(=O)c5ccc(C)cc5)CC4)nc3s2)c1,inactive: -5.37%
2,Cc1ccc(CSc2nnc(-n3c(=O)c(C#N)cc4c(=O)n5cccc(C)c5nc43)s2)cc1,inactive: 20.1%
3,COc1cc(C2CC(=O)Nc3c2c(C)nn3-c2nc(C)cc(C)n2)cc(OC)c1O (stereo not drawn),inactive: -6.05%
4,O=C(Cc1ccccc1)Nc1sc2c(c1C(=O)Nc1ccccc1)CCCCC2,inactive: -19.6%
5,COc1ccc(-c2nc3ccccc3n3c(-c4cccc(C)c4)c4c(=O)n(C)c(=O)n(C)c4c23)cc1,inactive: -6.27%
6,CSc1nc(=O)c2c(n1C)NC(=O)CC2c1ccccc1OC(C)C (stereo not drawn),inactive: -6.08%
7,Cc1nn(Cc2ccc(Cl)c(Cl)c2)c(C)c1NC(=O)c1noc2c1CCc1ccccc1-2,inactive: 33.7%
8,O=C(CC1(O)C(=O)N(CCc2ccccc2)c2ccc(Br)cc21)c1ccc(F)cc1 (stereo not drawn),inactive: -10.5%
9,CCc1ccc2c(c1)c(=O)c(S(=O)(=O)c1ccc(Cl)cc1)cn2CC,inactive: -9.1%
10,CCOc1ccc(CCNC(=O)CCCn2c(=O)c3cccn3c3cccnc32)cc1OCC,inactive: -19.5%
11,CSc1ccc(CNC(=O)C2CCCN(S(=O)(=O)N(C)c3ccc(F)cc3)C2)cc1 (stereo not drawn),inactive: -9.18%
12,COc1cccc(-c2cn3c(n2)sc2cc(C(=O)NCCCc4ccccc4)ccc23)c1,inactive: -11.7%
13,COC(=O)CC1Oc2ccccc2-n2cc(-c3ccc(C)cc3)nc21 (stereo not drawn),inactive: 1.5%
14,COc1cccc(CNCCSc2nnnn2C)c1OCc1ccccc1,inactive: 21.3%
15,Nc1c(C(=O)NCc2ccc(Cl)cc2Cl)nnn1Cc1ccc(Br)cc1,inactive: -6%
16,CCc1ccc(CNC(=O)c2cc3cc(S(=O)(=O)N4CCCCC4)ccc3n2C)cc1,inactive: -6.4%
17,CCCn1ccc2c(OCC(=O)Nc3cc(C)ccc3C)cccc2c1=O,inactive: 34.2%
18,Cc1ccc(S(=O)(=O)NCC2CCC(C(=O)NCc3ccc(F)cc3)CC2)cc1 (stereo not drawn),inactive: -4.76%
19,COc1ccc(OCC(=O)Nc2cc(-c3ccccc3F)nn2-c2ccccc2)cc1,active: 90.7%
20,COC(=O)c1ccc(NC(=O)CSc2nc(C)cc(C)c2C(=O)Nc2ccccc2)cc1,inactive: -18.1%
21,Cc1nc(-c2ccc(S(=O)(=O)Nc3ccc(C#N)cc3)cc2)co1,inactive: -2.05%

row,Compound,activation
1,COc1cc(NS(=O)(=O)c2cnc(N)nc2)cc(OC)c1,inactive: -12.7%
2,CCOc1ccc(/C=C/C(=O)Nc2sc3c(c2C(=O)OC)C(C(=O)OC)CC3)cc1 (stereo not drawn),inactive: -5.63%
3,CCOC(=O)c1cc(C)n(CC2CCC(C(=O)Nc3ccc(C(C)=O)cc3)CC2)c1C (stereo not drawn),inactive: -20.7%
4,COc1cc(C(=O)OCc2cc(=O)n3nc(C4CCCCC4)sc3n2)cc(OC)c1OC,inactive: -0.49%
5,CCn1nnc2cc(C(=O)Nc3ccc(Cl)cc3C)ccc21,inactive: -0.0431%
6,CCc1cccc(-n2c(=O)c3cccnc3n2CC(=O)NCc2ccccc2)c1,inactive: -27.6%
7,O=C(NCCC1=CCCCC1)c1ccc2c(c1)N(Cc1ccccc1F)C(=O)c1ccccc1S2=O (stereo not drawn),inactive: -12.6%
8,CCCNS(=O)(=O)c1ccc2nc(NC(=O)c3ccc(F)cc3)sc2c1,inactive: -19.1%
9,Cc1ccc2nc(N3CCN(c4ccccc4)CC3)c3nnnn3c2c1,inactive: -1.86%
10,CCc1cccc(NC(=O)c2cn3c4c(ccc(Cl)c4c2=O)OC(C)C3)c1 (stereo not drawn),inactive: 5.61%
11,COc1cc2cc(CNc3ccccc3)c(=O)n(CC(=O)Nc3ccccc3)c2cc1OC,inactive: -58.5%
12,C#CCn1c(=O)c2c(ncn2C)n(C)c1=O,inactive: -1.53%
13,COc1ccc(N2CCN(C(=O)c3cccc(-n4c(C)nc5cccnc54)c3)CC2)cc1,inactive: 27.9%
14,CC1CCCCN1C(=O)Cn1c(=O)n(-c2ccc(Cl)cc2)c(=O)c2c3c(sc21)CCC3 (stereo not drawn),inactive: 5.03%
15,COc1cccc(NC(=O)Cn2c(=O)cc(C)c3c(C)nn(-c4cccc(F)c4)c32)c1,inactive: -11.8%
16,COc1cccc(NC(=O)C2CCN(S(=O)(=O)c3cccc4nonc34)CC2)c1,inactive: 14.8%
17,COc1ccc(CNC(=O)c2ccc(NC(=O)N3CC4CCCN4c4ccccc43)cc2)cc1 (stereo not drawn),inactive: -30.4%
18,CCN1CCN(C(c2ccc(OC)cc2)c2c(O)cc(C)n(Cc3ccco3)c2=O)CC1 (stereo not drawn),inactive: -11.9%
19,CCN(CC)c1nc2c(-c3cccc(Br)c3)nnn2c2ccccc12,inactive: 0.48%
20,Cc1ccc(-n2ncc(C(=O)NCCc3ccccc3)c2C2CCN(C(=O)OC(C)(C)C)CC2)c(C)c1,inactive: -18.3%
